Data taken from patent US20250243260A1 (ALPINE IMMUNE SCIENCES, published 2025).
Where a chain is given by its changes, count along the chain named. Names and notes keep the numbering of the source.

B1: CD80_194 variant CD80 IgV-Fc (V11Y, M42W, T62A) (Fc fusion)
chain: VIHVTKEVKEYATLSCGHNVSVEELAQTRIYWQKEKKMVLTWMSGDMNIWPEYKNRTIFDIANNLSIVILALRPSDEGTYECVVLKYEKDAFKREHLAEVTLSVKADGSGGGGS[omitted - human IgG4 Fc with S228P (EU numbers)]
notes: also called CD80_194-Fc
B2: CD80_222 variant CD80 IgV-Fc (E35D, D46Q, L85E) (Fc fusion)
chain: B1 chain with Y11V, E35D, W42M, D46Q, A62T, L85E
notes: also called CD80_222-Fc
B3: CD80_221 variant CD80 IgV-Fc (E10G, A26S, T28Y) (Fc fusion)
chain: B1 chain with E10G, Y11V, A26S, T28Y, W42M, A62T
notes: also called CD80_221-Fc
B4: CD80_196 variant CD80 IgV-Fc (V11Y, M42W, E52K, T62A, L85E) (Fc fusion)
chain: B1 chain with E52K, L85E
notes: also called CD80_196-Fc
B5: CD80_207 variant CD80 IgV-Fc (E35D, V68T, T101K) (Fc fusion)
chain: B1 chain with Y11V, E35D, W42M, A62T, V68T, T101K
notes: also called CD80_207-Fc
B6: CD80_212 variant CD80 IgV-Fc (K9R, E10A, E35G, V68T, T101K) (Fc fusion)
chain: B1 chain with K9R, E10A, Y11V, E35G, W42M, A62T, V68T, T101K
notes: also called CD80_212-Fc
B7: CD80_215 variant CD80 IgV-Fc (K9R, E10A, E35G, V68L, L85E) (Fc fusion)
chain: B1 chain with K9R, E10A, Y11V, E35G, W42M, A62T, V68L, L85E
notes: also called CD80_215-Fc
B8: CD80_200 variant CD80 IgV-Fc (K9N, E10R, H18V, T28Y, A71G) (Fc fusion)
chain: B1 chain with K9N, E10R, Y11V, H18V, T28Y, W42M, A62T, A71G
notes: also called CD80_200-Fc
B9: CD80_205 variant CD80 IgV-Fc (E10G, D46K, L85E) (Fc fusion)
chain: B1 chain with E10G, Y11V, W42M, D46K, A62T, L85E
notes: also called CD80_205-Fc
B10: CD80_203 variant CD80 IgV-Fc (K9N, E10A, V11W, H18F, T28H, M47L, T62E, R73D) (Fc fusion)
chain: B1 chain with K9N, E10A, Y11W, H18F, T28H, W42M, M47L, A62E, R73D
notes: also called CD80_203-Fc
B11: CD80_214 variant CD80 IgV-Fc (E10G, E35G, D46E, M47V, V68M, T101K) (Fc fusion)
chain: B1 chain with E10G, Y11V, E35G, W42M, D46E, M47V, A62T, V68M, T101K
notes: also called CD80_214-Fc
B12: CD80_201 variant CD80 IgV-Fc (E10G, H18Y, T28Y, M47W, T62S) (Fc fusion)
chain: B1 chain with E10G, Y11V, H18Y, T28Y, W42M, M47W, A62S
notes: also called CD80_201-Fc
B13: CD80_197 variant CD80 IgV-Fc (V11Y, E35D, Y87Q, T101R) (Fc fusion)
chain: B1 chain with E35D, W42M, A62T, Y87Q, T101R
notes: also called CD80_197-Fc
B14: CD80_202 variant CD80 IgV-Fc (E7H, H18L, V20I, T28Y, D46S, A71G) (Fc fusion)
chain: B1 chain with E7H, Y11V, H18L, V20I, T28Y, W42M, D46S, A62T, A71G
notes: also called CD80_202-Fc
B15: CD80_213 variant CD80 IgV-Fc (V11Y, V68T) (Fc fusion)
chain: B1 chain with W42M, A62T, V68T
notes: also called CD80_213-Fc
B16: CD80_217 variant CD80 IgV-Fc (K9N, E10G, Y87K, T101Q) (Fc fusion)
chain: B1 chain with K9N, E10G, Y11V, W42M, A62T, Y87K, T101Q
notes: also called CD80_217-Fc
B17: CD80_210 variant CD80 IgV-Fc (E7N, E35D, F59S) (Fc fusion)
chain: B1 chain with E7N, Y11V, E35D, W42M, F59S, A62T
notes: also called CD80_210-Fc
B18: CD80_209 variant CD80 IgV-Fc (V11Y, T28R, E35G, M47L, F59S) (Fc fusion)
chain: B1 chain with T28R, E35G, W42M, M47L, F59S, A62T
notes: also called CD80_209-Fc; H5890
B19: CD80_216 variant CD80 IgV-Fc (V11W, T28Y, D46V, R73E, F92L) (Fc fusion)
chain: B1 chain with Y11W, T28Y, W42M, D46V, A62T, R73E, F92L
notes: also called CD80_216-Fc
B20: CD80_198 variant CD80 IgV-Fc (H18Y, A26E, R29S, E35D, M47L, V68M, A71G, E77G, D90G) (Fc fusion)
chain: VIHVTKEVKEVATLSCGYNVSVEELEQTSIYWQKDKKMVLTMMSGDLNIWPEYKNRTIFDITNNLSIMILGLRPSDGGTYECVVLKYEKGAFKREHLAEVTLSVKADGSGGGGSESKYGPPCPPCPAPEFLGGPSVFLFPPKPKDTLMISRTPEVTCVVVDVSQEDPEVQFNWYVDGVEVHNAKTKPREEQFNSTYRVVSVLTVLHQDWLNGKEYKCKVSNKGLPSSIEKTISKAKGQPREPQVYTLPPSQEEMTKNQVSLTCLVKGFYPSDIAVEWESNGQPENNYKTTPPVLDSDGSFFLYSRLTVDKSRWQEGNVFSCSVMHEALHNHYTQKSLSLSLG
notes: also called CD80_198-Fc
B21: CD80_208 variant CD80 IgV-Fc (V11Y, E35G, M42G, F59S) (Fc fusion)
chain: B1 chain with E35G, W42G, F59S, A62T
notes: also called CD80_208-Fc
B22: CD80_211 variant CD80 IgV-Fc (V11Y, T28R, E35G, M47L, A71G) (Fc fusion)
chain: B1 chain with T28R, E35G, W42M, M47L, A62T, A71G
notes: also called CD80_211-Fc
B23: CD80_204 variant CD80 IgV-Fc (H18V, V20I, T28Y, E35G, M47V, R73E) (Fc fusion)
chain: B1 chain with Y11V, H18V, V20I, T28Y, E35G, W42M, M47V, A62T, R73E
notes: also called CD80_204-Fc
B24: CD80_199 variant CD80 IgV-Fc (E10G, H18Y) (Fc fusion)
chain: B1 chain with E10G, Y11V, H18Y, W42M, A62T
notes: also called CD80_199-Fc
B25: CD80_206 variant CD80 IgV-Fc (E10G, H18T, Q27T, D46E, M47L) (Fc fusion)
chain: B1 chain with E10G, Y11V, H18T, Q27T, W42M, D46E, M47L, A62T
notes: also called CD80_206-Fc

The binders below were run against T1, human CTLA-4 (human, UniProt P16410 36-223) (assay: flow cytometry on CHO/CTLA-4 cells).
T1 construct: whole, on cells; also called CHO/CTLA-4 cells
T1 sequence (P16410 36-223): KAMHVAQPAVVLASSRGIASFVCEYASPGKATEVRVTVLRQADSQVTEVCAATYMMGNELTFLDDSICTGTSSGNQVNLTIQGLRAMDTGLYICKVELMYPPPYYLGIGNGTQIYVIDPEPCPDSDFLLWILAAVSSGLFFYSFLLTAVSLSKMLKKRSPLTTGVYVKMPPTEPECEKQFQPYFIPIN
Description: Binding affinity to CD28 was determined using primary human T cells which endogenously express CD28. Binding to PD-L1 was determined using SCC152 cells transduced with human PD-L1. Binding to CTLA-4 was measured using Chinese hamster ovary (CHO) cells stably transduced to express human CTLA-4.
For staining and analysis by flow cytometry, 75,000 human T cells, SCC152/PD-L1 cells, or CHO/CTLA-4 cells were plated in 96-well round-bottom plates. Cells were spun down and resuspended in staining buffer (PBS (phosphate buffered saline), 1% BSA (bovine serum albumin), 1 mM EDTA, and 0.1% sodium azide) for 20 minutes to block non-specific binding. Afterwards, cells were centrifuged, stain buffer aspirated, and then resuspended in 50 μL of a 1:5 serial dilution of each CD80-Fc candidate variant starting at 100 nM ending at 0.8 nM. Primary staining was performed on ice for 60 minutes, before washing cells in […] staining buffer three times. PE-conjugated anti-human Fc (Jackson ImmunoResearch, USA) was diluted 1:250 in 50 μL staining buffer and added to cells and incubated another 30 minutes at 4° C. Cells were washed two times in 150 μL stain buffer and then fixed in 2% formaldehyde/PBS for 5 minutes at room temperature. Samples were analyzed CytoFLEX LX flow cytometer (Beckman Coulter, USA). Median Fluorescence Intensity (MFI) was calculated for each cell type using the CytExpert software from Beckman Coulter.

Binder | MFI at 0.8 nM | MFI at 4 nM | MFI at 20 nM | MFI at 100 nM | fold change vs WT CD80 at 20 nM
B1 | 104000 MFI | 251000 MFI | 509000 MFI | 559000 MFI | 0.61 fold
B2 | 16800 MFI | 61700 MFI | 217000 MFI | 497000 MFI | 0.26 fold
B3 | 251000 MFI | 463000 MFI | 563000 MFI | 581000 MFI | 0.68 fold
B4 | 921 MFI | 2480 MFI | 9750 MFI | 32400 MFI | 0.01 fold
B5 | 279000 MFI | 450000 MFI | 478000 MFI | 514000 MFI | 0.58 fold
B6 | 220000 MFI | 331000 MFI | 377000 MFI | 403000 MFI | 0.45 fold
B7 | 20900 MFI | 77200 MFI | 237000 MFI | 452000 MFI | 0.29 fold
B8 | 307000 MFI | 478000 MFI | – | 507000 MFI | 0.28 fold
B9 | 27800 MFI | 101000 MFI | 256000 MFI | 471000 MFI | 0.31 fold
B10 | 58600 MFI | 148000 MFI | 317000 MFI | 426000 MFI | 0.38 fold
B11 | 180000 MFI | 400000 MFI | 551000 MFI | – | 0.66 fold
B12 | 159000 MFI | 282000 MFI | 345000 MFI | 423000 MFI | 0.42 fold
B13 | 286000 MFI | 481000 MFI | 559000 MFI | 518000 MFI | 0.67 fold
B14 | 263000 MFI | 419000 MFI | 458000 MFI | 488000 MFI | 0.55 fold
B15 | 223000 MFI | 455000 MFI | 531000 MFI | 523000 MFI | 0.64 fold
B16 | 249000 MFI | 546000 MFI | 689000 MFI | 694000 MFI | 0.83 fold
B17 | 4680 MFI | 13800 MFI | 58400 MFI | 188000 MFI | 0.07 fold
B18 | 7990 MFI | 28000 MFI | 96300 MFI | 269000 MFI | 0.12 fold
B19 | 212000 MFI | 406000 MFI | 502000 MFI | 520000 MFI | 0.61 fold
B20 | 6300 MFI | 22900 MFI | 75400 MFI | 201000 MFI | 0.09 fold
B21 | 27500 MFI | 79400 MFI | 219000 MFI | 453000 MFI | 0.26 fold
B22 | 273000 MFI | 393000 MFI | 417000 MFI | 414000 MFI | 0.5 fold
B23 | 271000 MFI | 436000 MFI | 497000 MFI | 503000 MFI | 0.6 fold
B24 | 293000 MFI | 534000 MFI | 604000 MFI | 591000 MFI | 0.73 fold
B25 | 294000 MFI | 511000 MFI | – | 587000 MFI | 0.44 fold
